# Results filed as inconclusive are left out. A number of entries come with more than one value. Only these are listed. An entry can have further records. Values given together are repeats in other runs, samples, wells, individuals or studies.
# Test system: nude mice, HT29 intrarenal xenograft, tumor weight T/C
# Experiment: NCI In Vivo Anticancer Drug Screen. Data for tumor model HT29;CX-1 Human Adenocarcinoma (MER+) (intrarenal inoculation) in NU/NU Swiss (nude) mice
# Settings: endpoint: mean tumor weight change, higher = larger tumour
# Summary of the method: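 T/C = treated-group value ÷ vehicle-group value, using tumor size or survival.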
SMILES,"T/C (dose: 25.0 mg/kg/injection, schedule: Q01DX010 (sc), vehicle: dextrose)","T/C (dose: 75.0 mg/kg/injection, schedule: Q04DX004 (sc), vehicle: saline + alcohol)"
CC(C)[NH-].CC(C)[NH-].O.O.[Cl][Pt+2][Cl],-56 % of control and -14 % of control,
CSc1ncnc2c1ncn2C1OC(CO)C(O)C1O (configuration not stated),,"12 % of control, 28 % of control, 38 % of control"

# Source: PubChem BioAssay AID206 (DTP/NCI, 2004)
